Measurements: publication PMC12136788
This is one part of the list.

T1: UNK ZnF1-3 (human, UniProt Q9C0B0 31-174)
T1 sequence: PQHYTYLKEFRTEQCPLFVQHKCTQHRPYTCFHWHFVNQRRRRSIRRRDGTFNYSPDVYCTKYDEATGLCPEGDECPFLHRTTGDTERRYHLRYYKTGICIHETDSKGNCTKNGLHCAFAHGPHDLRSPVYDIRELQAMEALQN

B1: chr7:19736620:19736621:-_ENSG00000105849_ENST00000222567|hu_mus|motif|central (ssRNA)
RNA: GGGAGUUCUACAGUCCGACGAUCAAGAUGCUGGUUAUUUAUCUACCUGUACAUAUUAAAUUGCUGUCAUUCCUUAUGCUCGGUAUACCGUAGAUGAAGUCAAGAAACAUGGUUGCCAGAAUUUACUCCUUAUGAAACAUUAAGCAACAGAGGAUUGAGCAUCA
B2: chr19:3544227:3544228:-_ENSMUSG00000024908_ENSMUST00000113997|mus_hu|FALSE|FALSE (ssRNA)
RNA: GGGAGUUCUACAGUCCGACGAUCAAAGAAAUGUUUUCUUCUUUGUGGCUCCUUGCCCAUUACAGGUUAUCCUGGUAACAGUUUUCCUCCAAUUUACUGCAUUAGCAGAUUAGCAGGAAUACAGUGGGAUAUGGAUAUGAAACACAACAGAGGAUUGAGCAUCA
B3: 20802431_20802551_1810_CDS_ENSMUSG00000036591_ENSMUST00000173194|mouse|control|control (ssRNA)
RNA: GGGAGUUCUACAGUCCGACGAUCAGUCUGUUUUCGUUCCCCAUUUGAGUCAGGUAUCUGACUUUCAGAAUUGACAGUGGCUGUGGCUUCCGUCUGUCCCUCUAUGUAAUCCCACGAACGAGUUCUAUGAUUAUUGAAGCUAACCAACAGAGGAUUGAGCAUCA
B4: chr7:65705844:65705845:+_ENSG00000169902_ENST00000304842|hu_mus|hu_hu_hu_mus_False|8_68 (ssRNA)
RNA: GGGAGUUCUACAGUCCGACGAUCAAACGGAUCUUUGUUACAUAAAUAAGGUGCCGGCUCCCCAUGUUUAACGAUAACCUCCAGAAGGAAGGCUUGCAUGGCAGAAUCUAGCACUUCAUCUGUGACACCAGCCUCAUCCAAGCGCAACAGAGGAUUGAGCAUCA
B5: chr5:138700276:138700277:+_ENSG00000120727_ENST00000265192|hu_hu|motif|central (ssRNA)
RNA: GGGAGUUCUACAGUCCGACGAUCUUCCAGCAUUUCUUGGAAACAGCGUUCAAUAAAUUCUUCUUCCCAUAACUCCUCUUCGGUUUGUCUGUUGAAUUCUUCUUCAUUUUCCAUCCACAUGUACUCUGCAAAUGGAUUGUCAUCCAACAGAGGAUUGAGCAUCA
B6: chr2:204281756:204281757:+_ENSG00000138443_ENST00000261017|hu_hu|FALSE|FALSE (ssRNA)
RNA: GGGAGUUCUACAGUCCGACGAUCCUUUUCCAAGUAAGAACGUGGAGCCCACGGUGGGUCCUCUUCAGCAUAAGGAUCACUAUACUCAACCACAGCAGCUUCCUCCUCUUCGUAAUCUUCUGGAGGAGGAGGAGGUGGGGGAGACAACAGAGGAUUGAGCAUCA
B7: chr2:160605069:160605070:+_ENSG00000136536_ENST00000409591|hu_hu|motif|central (ssRNA)
RNA: GGGAGUUCUACAGUCCGACGAUCAGCUCCAAGAGGAUCAUUCUGUGCUUCAAGGUGAACCACUUCAUUUGAUUCUCUUCGGAAAAUAUGAGAUCUAGAUGAUGUAUCAGAGGUAGGUAUCCUUGAAGAUUCAUCUCUUCCCUCCAACAGAGGAUUGAGCAUCA
B8: chr1:120459247:120459248:-_ENSG00000134250_ENST00000256646|hu_hu|motif|central (ssRNA)
RNA: GGGAGUUCUACAGUCCGACGAUCCCGAGCCACAUCCCGGGGAAGACGAUCCAUAUGGUCUGUGAUGUCUCGAUUGGCAAAAUGGUCGGACAGGAUCUUGGCUGCUUCAUAGCUCCCCUCCCGGGCAGCAAGAAACAGAGGUGUCAACAGAGGAUUGAGCAUCA
B9: chr1:93831146:93831147:+_ENSG00000117505_ENST00000370272|hu_hu|motif|central (ssRNA)
RNA: GGGAGUUCUACAGUCCGACGAUCUAACAGAGGUUCAGUUUCACAGCCUUUCCCUCAAGUGUCUUAUCCUAAAAGUAAAACCGGGAUGAUCUAAGGUGGUGGUUUUCAACAGGGUGCAAUUUUGCCUCCUAUACUCGCAACACCCAACAGAGGAUUGAGCAUCA
B10: 46905009_46906093_746_CDS_ENSG00000141627_ENST00000269445|human|control|control (ssRNA)
RNA: GGGAGUUCUACAGUCCGACGAUCCACUUUCAGCAAACAGCAAAUAAUAAACAAAGCAUUGUGUGUCUGCCAAAUGAAGAUGUGGUUCUGACAUUCUGCUGAAAGUUUUAGUUCUUUGGUUCUAGAAAGGAAGACCUUAAUUAGCAACAGAGGAUUGAGCAUCA
B11: chr8:103840089:103840090:-_ENSG00000155096_ENST00000347770|hu_mus|motif|central (ssRNA)
RNA: GGGAGUUCUACAGUCCGACGAUCUCUCCAUAAUAAAUCUGAACUUCACAAUGAUUACCAAACACAUUUACUUAAAUUACGGAUUAAAUAACUAAAAAGUAUAUUGAGGCAAACCAAACUUAAACGGGUUAUAAAGAAACUAACCAACAGAGGAUUGAGCAUCA
B12: 112035641_112041122_537_CDS_ENSG00000010810_ENST00000368667|human|control|control (ssRNA)
RNA: GGGAGUUCUACAGUCCGACGAUCCACUCCUGUUCCUCCUCUCGUACGCAAGGUCCCCGUAUGAGACGAAGAGUUCACACCUCCAAAGACGGUGAGUCCUUGGCCCCCGGCUGCGUGGAAGUUGUUGUAGUUGGGGAUGGAGGUCAACAGAGGAUUGAGCAUCA
B13: 32622542_32625180_775_3pUTR_ENSMUSG00000002996_ENSMUST00000172314|mouse|control|control (ssRNA)
RNA: GGGAGUUCUACAGUCCGACGAUCUUUUGAAGAAGAGGACACUGGUGGUGGGCGUGCAUAGGAAUGUAAACUUUUGCUAGUAGCUAUGAUGUGUACAGGAGAUGAUCUGUUAUAAAAUGAGCACUGCAUCAGGGGACUUUGUGGCAACAGAGGAUUGAGCAUCA
B14: chr1:109605286:109605287:-_ENSG00000197780_ENST00000461096|hu_mus|hu_hu_hu_mus_True|18_78 (ssRNA)
RNA: GGGAGUUCUACAGUCCGACGAUCAAGUUUCAGAGUAACAUUCAGUAACCUCUUUAACAAUUGUAAUCCUUAUUAUAAGCUAAGCAGAAUAAUAAUUUAAUACCGUAAGUGAACUACCACAAAACCUUGAACCGCGAAAAUGGUCAACAGAGGAUUGAGCAUCA

The binders below were run against T1, UNK ZnF1-3 (assay: nsRBNS (natural sequence RNA bind-n-seq); RBNS binding buffer (assumed for nsRBNS): 25 mM Tris pH 7.5, 150 mM KCl, 3 mM MgCl2, 0.01% Triton X-100, 500 ug/ml BSA, 20 U/ml SUPERase-In, 4 C; UNK is unkempt and MSI1 is Musashi-1; names of the RNAs are library labels; protein concentration not given here; high values mean tight binding).

Question: With B1 as the binder, how does the binding signal read?
Answer: 1.14 enrichment R

Question: With B2 as the binder, how does the binding signal read?
Answer: 0.804 enrichment R

Question: How did the binding signal turn out when B3 was run?
Answer: 0.791 enrichment R

Question: For B4, which binding signal is on record?
Answer: 0.634 enrichment R

Question: With B5 as the binder, how does the binding signal read?
Answer: 0.487 enrichment R

Question: For B6, which binding signal is on record?
Answer: 0.895 enrichment R

Question: With B7 as the binder, how does the binding signal read?
Answer: 0.72 enrichment R

Question: For B8, which binding signal is on record?
Answer: 1.07 enrichment R

Question: B9 was tested. Which binding signal did it give?
Answer: 0.881 enrichment R

Question: B10 was tested. Which binding signal did it give?
Answer: 0.72 enrichment R

Question: For B11, which binding signal is on record?
Answer: 1.61 enrichment R

Question: For B12, which binding signal is on record?
Answer: 0.636 enrichment R

Question: How did the binding signal turn out when B13 was run?
Answer: 1.76 enrichment R

Question: Which binding signal does the source give for B14 here?
Answer: 0.792 enrichment R
